In paper PMC4538830:
These are yes or no findings as the source states them, for the method shown. For some assays here: Binding seen in cells or lysates may run through a third protein. Some binding calls cover weakened binding; strength is not graded here. For some assays here: Tags and fused reporters may be left off the sequences shown.

What was measured:
[1] = target: T1, human HA-CWC15 (human) (UniProt Q9P013); experiment: co-IP; anti-HA resin, 1 h at 4°C, triton lysis buffer with benzonase; lysates of LPS and IL-4 stimulated mouse B cells transduced with human HA-CWC15; control (Ctnnbl1+/flx) and CTNNBL1-deficient (Ctnnbl1−/flx) cells; western blot
T1 sequence: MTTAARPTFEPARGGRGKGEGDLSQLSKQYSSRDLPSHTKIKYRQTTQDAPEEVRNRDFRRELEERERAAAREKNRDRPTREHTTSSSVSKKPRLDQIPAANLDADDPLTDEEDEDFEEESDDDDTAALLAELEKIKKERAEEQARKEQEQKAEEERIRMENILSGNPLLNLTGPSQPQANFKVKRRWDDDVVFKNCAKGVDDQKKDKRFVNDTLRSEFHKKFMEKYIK

[2] = target: T2, full-length recombinant His tagged CTNNBL1 (human) (UniProt Q8WYA6); experiment: pull-down; His-CTNNBL1 (full length or [77–563]) as bait on Ni-NTA resin; 10–20 μg of each purified protein in pull down buffer, 1 h at 4°C; eluates on SDS-PAGE, Instant Blue; both purified
T2 sequence: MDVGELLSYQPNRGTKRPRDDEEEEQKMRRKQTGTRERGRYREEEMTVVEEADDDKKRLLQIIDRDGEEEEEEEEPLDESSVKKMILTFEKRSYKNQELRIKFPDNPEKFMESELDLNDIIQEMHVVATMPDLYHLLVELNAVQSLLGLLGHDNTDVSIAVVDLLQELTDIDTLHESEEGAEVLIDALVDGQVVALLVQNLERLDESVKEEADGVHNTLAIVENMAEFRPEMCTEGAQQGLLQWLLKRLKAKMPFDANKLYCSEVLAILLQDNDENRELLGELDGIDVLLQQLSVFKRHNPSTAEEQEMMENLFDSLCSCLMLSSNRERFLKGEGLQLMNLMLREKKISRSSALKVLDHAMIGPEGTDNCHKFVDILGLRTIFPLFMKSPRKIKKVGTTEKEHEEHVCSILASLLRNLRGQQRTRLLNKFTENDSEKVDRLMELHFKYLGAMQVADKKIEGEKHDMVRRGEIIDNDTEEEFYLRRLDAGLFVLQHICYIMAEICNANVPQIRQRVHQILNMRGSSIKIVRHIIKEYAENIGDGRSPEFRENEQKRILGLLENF

[3] = target: CWC15[80–229] (human) (UniProt Q9P013); experiment: SEC-MALS; mixture of purified His-CTNNBL1[77–563], CDC5L[1–195] and CWC15[80–229]; both purified
[4] = target: T2, full-length recombinant His tagged CTNNBL1 (human); experiment: SEC-MALS; CTNNBL1 (full length or [77–563]) alone; also in high salt buffer (0.5 M NaCl) or with CWC15[80–229] added; Supplementary Figure S7; both purified
[5] = target: His-CTNNBL1[77–563] (human) (UniProt Q8WYA6); experiment: as above

B1: CTNNBL1 (endogenous, mouse B cells) (protein, UniProt Q9CWL8 1-563)
chain: MDVGELLSYQPNRGTKRPRDDEEEELKTRRKQTGPRERGRYREEEATAAEDTADDKKRLLQIIDRDGEEEEEEEEPLDESSVKKMILTFEKRSYKNQELRIKFPDNPEKFMESELDLNDIIQEMHVVATMPDLYHLLVELSAVQSLLGLLGHDNTDVSIAVVDLLQELTDIDTLHESEEGAEVLIDALVDGQVAALLVQNLERLDESVREEADGVHNTLAIVENMAEFRPEMCTEAAQQGLLQWLLKRLKAKMPFDANKLYCSEVLAILLQDNDENRELLGELDGIDVLLQQLSVFKRHNPSTAEEQEMMENLFDALCSCLMLSSNRERFLKGEGLQLMNLMLREKKVSRSSALKVLDHAMIGPEGTDNCHKFVDILGLRTIFPLFMKSPRKIKKVGTTEKEHEEHVCSILASLLRNLRGQQRTRLLNKFTENDSEKVDRLMELHFKYLSAMQVADKKIEGEKHDIVRRGEIIDNDMEDEFYLRRLDAGLFILQHICYIMAEICNANVPQIRQRVHQILNMRGSSIKIVRHIIKEYAENIGDGRSPEFRETEQKRILALLENF
For B1, which binding [1] is on record?
Its binding is “binds”.

B2: GST tagged CWC15[1–79] fragment (domain or fragment, UniProt Q9P013 1-79)
chain: MTTAARPTFEPARGGRGKGEGDLSQLSKQYSSRDLPSHTKIKYRQTTQDAPEEVRNRDFRRELEERERAAAREKNRDRP
How did the binding [2] turn out when B2 was run?
The binding was “no binding”.

B3: CWC15[80–229] (domain or fragment, UniProt Q9P013 80-229)
chain: TREHTTSSSVSKKPRLDQIPAANLDADDPLTDEEDEDFEEESDDDDTAALLAELEKIKKERAEEQARKEQEQKAEEERIRMENILSGNPLLNLTGPSQPQANFKVKRRWDDDVVFKNCAKGVDDQKKDKRFVNDTLRSEFHKKFMEKYIK
How did the binding [3] turn out when B3 was run?
The binding was “no binding”.

B4: full-length recombinant His tagged CTNNBL1 (protein, UniProt Q8WYA6 1-563)
chain: T2 sequence
How did the binding [4] turn out when B4 was run?
The binding was “no binding (condition: high salt buffer (0.5 M NaCl))”.

B5: His-CTNNBL1[77–563] (domain or fragment, UniProt Q8WYA6 77-563)
chain: LDESSVKKMILTFEKRSYKNQELRIKFPDNPEKFMESELDLNDIIQEMHVVATMPDLYHLLVELNAVQSLLGLLGHDNTDVSIAVVDLLQELTDIDTLHESEEGAEVLIDALVDGQVVALLVQNLERLDESVKEEADGVHNTLAIVENMAEFRPEMCTEGAQQGLLQWLLKRLKAKMPFDANKLYCSEVLAILLQDNDENRELLGELDGIDVLLQQLSVFKRHNPSTAEEQEMMENLFDSLCSCLMLSSNRERFLKGEGLQLMNLMLREKKISRSSALKVLDHAMIGPEGTDNCHKFVDILGLRTIFPLFMKSPRKIKKVGTTEKEHEEHVCSILASLLRNLRGQQRTRLLNKFTENDSEKVDRLMELHFKYLGAMQVADKKIEGEKHDMVRRGEIIDNDTEEEFYLRRLDAGLFVLQHICYIMAEICNANVPQIRQRVHQILNMRGSSIKIVRHIIKEYAENIGDGRSPEFRENEQKRILGLLENF
With B5 as the binder, how does the binding [5] read?
Its binding is “no binding (condition: high salt buffer (0.5 M NaCl))”.
